Measurements taken from the supplement of paper PMC12217912.
The other results are listed elsewhere or left out. Sequences were assembled here from the parent chain. Values near 0.05 are background.

B1: TEV protease; numbered along this chain (parent)
chain: MGESLFKGPRDYNPISSSICHLTNESDGHTTSLYGIGFGPFIITNKHLFRRNNGTLVVQSLHGVFKVKDTTTLQQHLVDGRDMIIIRMPKDFPPFPQKLKFREPQREERICLVTTNFQTKSMSSMVSDTSCTFPSGDGIFWKHWIQTKDGQCGSPLVSTRDGFIVGIHSASNFTNTNNYFTSVPKNFMELLTNQEAQQWVSGWRLNADSVLWGGHKVFMVKPEEPFQPVKEATQL

Variants of: B1
Test: raw area under fraction-flipped curve 0-4 h after induction (AUC4h, not background-subtracted), DNA-recorder readout of cleavage of the substrate (dimensionless); higher = more cleavage of the substrate by the protease variant
Settings: temperature: 34 °C; time window: 0-4 h after rhamnose induction
Method: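 In vivo DNA recorder in E. coli TOP10(DE3) ΔrhaA at 34 °C. Each TEVp single-site mutant (parent TEVp 0) is paired with a single-site variant of the 7-mer TEVs (canonical ENLYFQ|S). The substrate sits between flexible linkers in a Bxb1-sfGFP-TEVs-SsrA fusion, so cleavage stabilises Bxb1 and speeds flipping of a recombination array, read by NGS. The value is the raw area under the fraction-flipped curve over 0-4 h after rhamnose induction (AUC4h), with ≥20 reads per time point. It is not background-subtracted; inactive controls average about 0.047.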
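Further: Bxb1 expression induced with 0.2% (w/v) L-rhamnose at OD600 near 0.5, cultures sampled hourly, flipped fraction per protease–substrate barcode pair counted by paired-end Illumina sequencing.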

| Variant | area with substrate ENLYFQC | area with substrate ENLYFQF | area with substrate ENLYFQG | area with substrate ENLYFQH | area with substrate ENLYFQI | area with substrate ENLYFQK | area with substrate ENLYFQN | area with substrate ENLYFQR | area with substrate ENLYFQS | area with substrate ENLYFQV | area with substrate ENLYFQW | area with substrate ENLYFQD | area with substrate ENLYFQL | area with substrate ENLYFQM | area with substrate ENLYFQP | area with substrate ENLYFQT | area with substrate ENLYFQQ | area with substrate ENLYFQY |
| --- | --- | --- | --- | --- | --- | --- | --- | --- | --- | --- | --- | --- | --- | --- | --- | --- | --- | --- |
| P9Q | 0.136 | 0.111 | 0.0862 | 0.0796 | 0.0654 | 0.126 | 0.0816 | 0.0596 | 0.117 | 0.0811 | 0.0618 |  |  |  |  |  |  |  |
| D11E | 0.128 | 0.129 | 0.0897 | 0.08 | 0.0568 | 0.0578 | 0.0704 | 0.0648 | 0.0944 | 0.0491 |  | 0.0772 | 0.071 | 0.0801 | 0.053 | 0.0591 |  |  |
| Y12A | 0.134 |  | 0.0847 | 0.0732 | 0.0821 | 0.0627 |  | 0.0505 | 0.105 | 0.0578 |  | 0.0655 | 0.0639 | 0.0795 | 0.0625 | 0.058 | 0.0931 |  |
| Y12I | 0.144 |  |  |  | 0.0735 | 0.0705 | 0.0722 | 0.0516 | 0.0984 | 0.0565 | 0.0647 | 0.0778 | 0.059 | 0.0961 | 0.0674 |  |  |  |
| S16K | 0.141 |  |  | 0.0904 | 0.0594 | 0.0568 |  | 0.0422 | 0.119 | 0.0574 |  | 0.0584 | 0.046 | 0.0773 | 0.0535 |  |  | 0.0888 |
| S17C | 0.106 |  | 0.144 | 0.0872 | 0.0415 | 0.0637 | 0.0528 | 0.0545 | 0.0985 | 0.053 | 0.0714 | 0.0804 | 0.062 |  | 0.0404 | 0.0667 |  | 0.067 |
| S18M | 0.101 | 0.0912 | 0.0972 | 0.0997 | 0.0535 |  | 0.0865 |  | 0.101 |  |  | 0.0518 | 0.0674 |  |  | 0.0642 |  | 0.0787 |
| L22G | 0.0457 | 0.0486 | 0.0539 |  |  |  |  |  | 0.0442 |  | 0.0508 |  | 0.045 |  |  |  |  | 0.0492 |
| N24F | 0.0743 |  | 0.0707 | 0.0644 | 0.0558 | 0.0529 |  | 0.0611 | 0.086 | 0.0141 | 0.0645 | 0.0775 |  | 0.0721 | 0.0589 | 0.0595 |  | 0.0538 |
| E25C | 0.108 | 0.0715 | 0.161 | 0.0653 | 0.0559 | 0.0604 | 0.0924 | 0.0586 | 0.108 | 0.0681 | 0.0676 | 0.0658 | 0.068 | 0.0571 |  | 0.0685 | 0.0548 |  |
| H29F | 0.122 |  | 0.15 |  |  |  | 0.0777 | 0.0597 | 0.101 |  | 0.0468 |  | 0.0753 | 0.118 |  |  | 0.0689 | 0.0916 |
| T31Q | 0.0796 | 0.0598 | 0.0795 |  | 0.051 |  |  | 0.0551 | 0.101 |  |  |  | 0.0606 | 0.0851 |  |  |  |  |
| S32K | 0.151 |  |  | 0.0888 | 0.06 | 0.0654 | 0.0756 | 0.0507 | 0.11 | 0.0633 | 0.0692 | 0.0775 | 0.0661 | 0.0894 | 0.042 | 0.0694 |  |  |
| G35E | 0.05 |  | 0.0418 | 0.0347 |  |  |  | 0.0355 | 0.0449 |  | 0.0392 |  | 0.0403 |  |  | 0.0396 |  |  |
| G35R | 0.0453 |  |  |  | 0.0496 |  |  | 0.0532 | 0.043 |  | 0.0474 |  |  |  |  | 0.0533 |  |  |
